Data as given in PubChem BioAssay (NCATS).
This list was built around the results that the source calls inconclusive (neither active nor inactive); the mix of calls is not that of the screen. Potencies of inconclusive entries are left out as doubtful fits. The source made the active and inactive calls. Calls come from the whole dose curve; as a rule, active = well fitted curve in the direction sought with a large enough effect; inconclusive = small, poorly fitted or top-dose-only effect, or another doubt; inactive = no such curve, though single readings can be large; an effect the other way counts as inactive or inconclusive.

Columns and labels:
[1] = qHTS for Inhibitors of Plasmodium falciparum (7G8) proliferation (AID 504316); note: nearly all actives have a fitted effect of over 65% in size; conditions: P. falciparum 7G8 in erythrocytes, SYBR Green DNA, 72 h; activity change, negative = inhibition: at 6.7 µM (top of the series)
Summary of the method: (§1)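 Parasite growth measured as SYBR Green DNA fluorescence (ex 485, em 535 nm) after overnight lysis following 72 h culture at 37 °C, 0.3% parasitemia, 2.5% hematocrit. Values normalized against DMSO and 0.29 uM artemisinin controls, with plate-stack correction.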

[2] = qHTS for Inhibitors of Plasmodium falciparum (HB3) proliferation (AID 504318); note: nearly all actives have a fitted effect of over 60% in size; conditions: P. falciparum HB3 in erythrocytes, SYBR Green DNA, 72 h; activity change, negative = inhibition: at 7.21 µM (top of the series)
Summary of the method: as §1

[3] = qHTS for Inhibitors of Plasmodium falciparum (CP250) proliferation (AID 504320)
Summary of the method: as §1
Potency is the fitted concentration of half-maximal effect; tags give direction and shape of the fitted curve.

Compound	Potency [1]	Potency [2]	Potency [3]
O=C(c1ccccc1)[C@@H]1O[C@@H]1c1ccccc1	inactive	inactive	inconclusive [inhibitor, partial curve, poor fit]
C=CC1=C2C=C(C3CC3)N(C3CCCC3)C=C2C(=O)C(C)(OC(=O)c2ccco2)C1=O (centres undefined)	inconclusive [inhibitor, partial curve] and inactive	inconclusive [inhibitor, single point]	–
COC(=O)C1=C(C(=O)OC)[C@@H]2N(Cc3ccccc3)c3ccccc3[C@@]23C[C@@H](C(=O)OC)N(C(=O)COCc2ccccc2)C3=N1	inconclusive [inhibitor, partial curve, poor fit]	inactive	–
CCOC(=O)CCN1C(=O)[C@@H]2[C@H]3[C@H](O)[C@H](O)CC(=NNC(=O)OCc4ccccc4)[C@@H]3CC[C@H]2C1=O	inconclusive [inhibitor, partial curve, poor fit]	inconclusive [inhibitor, partial curve, poor fit]	–
CC(=CC[Si](C)(C)C)CCC=O	inconclusive [inhibitor, single point]	inconclusive [inhibitor, single point]	inactive
CCCCS(=O)(=O)N1C2=NC(C(=O)OC)=C(C(=O)OC)[C@@H]3N(C)c4ccc(OC)cc4[C@]23C[C@H]1C(=O)OC	inconclusive [inhibitor, single point]	inconclusive [inhibitor, single point]	–
